Drawing on PMC12136788, this text covers binding signal for 6 molecules.

This is one part of the list.

T1: UNK ZnF1-6 (called full-length) (human, UniProt Q9C0B0 30-357)
T1 sequence: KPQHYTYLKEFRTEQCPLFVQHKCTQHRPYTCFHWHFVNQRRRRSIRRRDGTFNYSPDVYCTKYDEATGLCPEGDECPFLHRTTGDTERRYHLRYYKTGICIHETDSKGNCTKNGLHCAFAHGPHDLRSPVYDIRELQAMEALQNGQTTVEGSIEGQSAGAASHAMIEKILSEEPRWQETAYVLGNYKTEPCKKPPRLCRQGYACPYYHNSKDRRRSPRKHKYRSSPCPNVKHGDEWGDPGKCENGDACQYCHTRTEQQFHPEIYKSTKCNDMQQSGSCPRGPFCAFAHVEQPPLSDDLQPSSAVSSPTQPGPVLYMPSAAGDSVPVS

B1: chr7:20410991:20411126:+|3pUTR|ENSG00000105855|msi1|total|mutant (ssRNA)
RNA: GGGAGUUCUACAGUCCGACGAUCAAAUUCUGCCUCAAGCAAAGUACCACAUUUUGAAUGUUUUCUCCGAUUUUGAUUGCAAGCCGAUAUCAGCAUUUUUUAAAUGAAAAGCUAUAUUAUCUUCUCCCUUCAAGGCAGCCUAAGCAACAGAGGAUUGAGCAUCA
B2: chr17:74695098:74695251:-|CDS|ENSG00000186074|control|control|control (ssRNA)
RNA: GGGAGUUCUACAGUCCGACGAUCUCUCUGACCUUGGGUGCUGAGGAUCAGGAACCGACCUACUGCAACAUGGGCCACCUCAGUAGCCACCUCCCCGGCAGGGGCCCUGAGGAGCCCACGGAAUACAGCACCAUCAGCAGGCCUCAACAGAGGAUUGAGCAUCA
B3: chr12:6238111:6238124:+|3pUTR|ENSG00000010278|msi1_unk|FALSE|overlapping (ssRNA)
RNA: GGGAGUUCUACAGUCCGACGAUCUGUUUGUUUUUGCUUGUUAUAUUAAGCAGAAAUCCUGCAAUGAAAGGUACUAUAUUUGCUAGACUCUAGACAAGAUAUUGUACAUAAAAGAAUUUUUUUGUCUUUAAAUAGAUACAAAUGCAACAGAGGAUUGAGCAUCA
B4: chr1:89933607:89933717:+|CDS|ENSG00000171492|unk|FALSE|bound_elsewhere (ssRNA)
RNA: GGGAGUUCUACAGUCCGACGAUCCAACUUUUGGUUCAAAUAUCCCAAAACAUGCUCAAAAGUAGAACAUUUUGUUUCAAUAUUAGGAAAGUGCUUUGAAUCCCCUUGGACGACAAAAGCGUUGUCUGAGACAGCAUGCGAAGACAACAGAGGAUUGAGCAUCA
B5: chr3:41225653:41225883:+|CDS|ENSG00000168036|unk|total|mutant (ssRNA)
RNA: GGGAGUUCUACAGUCCGACGAUCCAUUACAACUCUCCACAACCUUUUAUUACAUCAAGAAGGAGCUAAAAUGGCAGUGCGUUCCGCUGGUGGGCUGCAGAAAAUGGUUGCCUUGCUCAACAAAACAAAUGUUAAAUUCUUGGCCAACAGAGGAUUGAGCAUCA
B6: chr8:28970260:28970371:+|CDS|ENSG00000147421|unk|FALSE|unique (ssRNA)
RNA: GGGAGUUCUACAGUCCGACGAUCUCUUCCUCUACAGCUACAGCUUCCACACAGACGCAGCAUUCGGGAAUGUCCCCGUCACCUAGCAACAGUUAUGAUACUUCCCCACAGCCUUGCACUACCAAUCAAAAUGGGAGGGAGAAUCAACAGAGGAUUGAGCAUCA

The assay concerns the target T1, UNK ZnF1-6 (called full-length). In words: nsRBNS (natural sequence RNA bind-n-seq); RBNS binding buffer (assumed for nsRBNS): 25 mM Tris pH 7.5, 150 mM KCl, 3 mM MgCl2, 0.01% Triton X-100, 500 ug/ml BSA, 20 U/ml SUPERase-In, 4 C; UNK is unkempt and MSI1 is Musashi-1; names of the RNAs are library labels; protein concentration not given here; high values mean tight binding.
B1: the binding signal amounted to 0.367 enrichment R.
With B2 the figure was 0.585 enrichment R; with B3, 0.632 enrichment R.
As for B4, the figure is 0.843 enrichment R.
B5: the binding signal was 0.601 enrichment R.
As for B6, the figure is 0.928 enrichment R.
